Source: PubChem BioAssay AID894 (National Center for Advancing Translational Sciences (NCATS), 2007)
Values joined by “and” are separate entries in the source; they are usually repeats but may differ in a detail not shown here. Identical values can stand only once. In all, about 150,000 compounds went through this assay and about 6,500 (4.3%) were called active. Inconclusive results, whose numbers are uncertain, are shown with a selection of clear calls. The call rests on the fitted dose curve; in most records, active means well fitted inhibition curve with a large enough effect (not every such curve was filed as active); inconclusive means small, poorly fitted or top-dose-only effect, or another doubt; inactive means no such curve, though single readings can be large or run the other way. Where the call is inconclusive, the potency comes from a doubtful curve fit. The source holds several records for some structures; these can differ, active in one and inactive in another.

biological target: 15-hydroxyprostaglandin dehydrogenase [NAD(+)] (Homo sapiens) (UniProt P15428); experiment: qHTS Assay for Inhibitors of HPGD (15-Hydroxyprostaglandin Dehydrogenase); settings: purified HPGD, NADH fluorescence kinetic, PGE2 substrate; activity change, negative = inhibition: hits give low values
Text: Human 15-Hydroxyprostaglandin dehydrogenase (HPGD) catalyzes the inactivation of prostaglandin E2, and plays a major role in cancer biology by antagonizing the oncogenic potential of cyclooxygenase type 2 (COX2). Assays are available, based on absorbance/fluorescence increase of NADH with the substrate 15-OH prostaglandin E2. References 1. Myung SJ, Rerko RM, Yan M, Platzer P, Guda K, Dotson A, Lawrence E, Dannenberg AJ, Lovgren AK, Luo G, Pretlow TP, Newman RA, Willis J, Dawson D, Markowitz SD. 15-Hydroxyprostaglandin dehydrogenase is an in vivo suppressor of colon tumorigenesis. […] 2. Yan M, Rerko RM, Platzer P, Dawson D, Willis J, Tong M, Lawrence E, Lutterbaugh J, Lu S, Willson JK, Luo G, Hensold J, Tai HH, Wilson K, Markowitz SD. 15-Hydroxyprostaglandin dehydrogenase, a COX-2 oncogene antagonist, is a TGF-beta-induced suppressor of human gastrointestinal cancers. Proc Natl Acad Sci U S A. 2004 Dec 14;101(50):17468-73. 3. Yang L, Amann JM, Kikuchi T, Porta R, Guix M, Gonzalez A, Park KH, Billheimer D, Arteaga CL, Tai HH, Dubois R, Carbone DP, Johnson DH. Inhibition of Epidermal Growth Factor Receptor Signaling Elevates 15-Hydroxyprostaglandin Dehydrogenase in Non-Small-Cell Lung Cancer. Cancer Res. 2007 Jun 15;67(12):5587-5593. Inhibition of HPGD activity was screened by utilizing prostaglandin as an electron donor and NAD+ as an electron acceptor/cofactor. An increase in the fluorescence intensity due to conversion of NAD+ to NADH was used to measure the enzyme activity. NIH Chemical Genomics Center [NCGC] Structural Genomics Consortium [SGC]
Buffer: 50 mM Tris-HCl, 0.01% Tween 20, pH 8. Enzyme Buffer: 50 mM Tris-HCl, 0.5 mM NAD+ and 0.01% Tween 20, pH 8. Reagents/Controls: Buffer in columns 3 and 4 as negative control (no enzyme). Substrate/cofactor solution: 1 mM NAD+ and 30 uM prostaglandin (Sigma, prostaglandin E2, # P5640) final concentrations dispensed throughout the plate. Enzyme: 20 nM HPGD final concentration in columns 1, 2, 5-48. Column 1 and 2 is neutral (100% activity). A titration of control inhibitor GW5074 (G6416 Sigma-Aldrich, St. Louis, MO) top concentration 10 mM in DMSO, then 1:2 dilution for a total of 16 concentrations in duplicate) was pin-transferred into column 2. Assay Steps: Three uL of enzyme were dispensed to 1536-well Greiner black solid bottom plates. Compounds and control inhibitor (23 nL) were transferred via Kalypsys PinTool. The plates were incubated for 15 min at room temperature, and then 1 uL of substrate/cofactor solution was added to start the reaction. The plates were immediately transferred to and read 5 times every 30 seconds on ViewLux High-throughput CCD imager (Perkin-Elmer) using 360 nm excitation and 450 nm emission fluorescence protocol. The fluorescence intensity difference between the last and the first time points was used to compute reaction progress.
On the % scale 0 is the no-effect control and ±100 the full control effect; potency means the concentration at half of the fitted maximal effect; tags describe the fitted curve by direction and shape.

Chain of UniProt P15428 (P15428 whole entry, looked up): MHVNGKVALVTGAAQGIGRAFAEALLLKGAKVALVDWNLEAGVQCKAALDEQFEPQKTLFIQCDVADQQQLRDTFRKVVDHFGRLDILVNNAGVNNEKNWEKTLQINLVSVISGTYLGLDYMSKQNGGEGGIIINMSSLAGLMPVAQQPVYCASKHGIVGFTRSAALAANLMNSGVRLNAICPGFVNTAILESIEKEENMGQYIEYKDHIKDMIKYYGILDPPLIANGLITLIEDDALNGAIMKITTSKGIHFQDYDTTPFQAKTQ

Row | SMILES | Potency | activity change, negative = inhibition
1 | CCCCN1C(=O)NC(=O)C2(Cc3c(nc4c(C)cccn4c3=O)N3CCc4ccccc4C32)C1=O (centres undefined) | inconclusive: 28.2 µM [inhibitor, single point] | –
2 | COCCNC(=O)c1c(NC(=O)c2ccco2)n(Cc2ccccc2)c2nc3ccccc3nc12 | inconclusive: 31.6 µM [inhibitor, partial curve] | –
3 | N#CC(C#N)=Cc1cc(O)c(O)c([N+](=O)[O-])c1 | active: 22.4 µM | –
4 | CC(C)(C)c1cc(C=C(C#N)C#N)cc(C(C)(C)C)c1O | inconclusive: 22.4 µM [inhibitor, partial curve, poor fit] | –
5 | CCCCN1C(=O)/C(=C/C=C/c2ccco2)C(=O)NC1=S | active: 10 µM | –
6 | CCn1nc(-c2ccccc2)nc2c(=O)n(C)c(=O)nc1-2 | – | inactive: -14.2%
7 | CC(C)[C@@H]1CN[C@H](C(=O)O)[C@@H]1CC(=O)O | – | inactive: -6.32%
8 | CCN(CC)c1ccc(/C=C2/C(=O)NC(=O)N(Cc3ccco3)C2=O)cc1 | active: 10 µM | –
9 | CNc1ccc2oc(C[C@@H]3OC4(CC[C@@H]3C)O[C@H](C(C)C(=O)c3ccc[nH]3)[C@H](C)C[C@H]4C)nc2c1C(=O)O (some centres undefined) | – | inactive: -18.6%
10 | O=C(c1cc2cc3ccc(Cl)cc3nc2o1)N1CCC2(CC1)OCCO2 | inconclusive: 35.5 µM [inhibitor, partial curve] | –
11 | CCNC(=O)O/N=C(\C)c1sc(-c2ccccc2)nc1C | inconclusive: 39.8 µM [inhibitor, partial curve] | –
12 | CCCCOCCCn1c(N)c(C(=O)OC(C)COC)c2nc3ccccc3nc21 (centres undefined) | inconclusive: 28.2 µM [inhibitor, partial curve] | –
13 | Cc1ccccc1-c1nc(CS(=O)CC(=O)N2CCC3(CC2)OCCO3)c(C)o1 (centres undefined) | inconclusive: 31.6 µM [inhibitor, partial curve] | –
14 | COc1ccc(C2SCC(=O)Nc3c2c(C)nn3C2CCOC(C)(C)C2)cc1 (centres undefined) | – | inactive: -3.84%
15 | NC(N)=Nc1ccc2[nH]c3c(c2c1)C[C@@]1(O)[C@H]2Cc4ccc(O)c5c4[C@@]1(CCN2CC1CC1)[C@H]3O5 | active: 3.16 µM | –
16 | CCCCOc1nc2ccccc2c(=O)n1-c1ccccc1 | – | inactive: -13%
17 | CCN(CC)c1ccc(/C=C2\C(=O)NC(=O)N(CC3CCCO3)C2=O)cc1 (centres undefined) | active: 25.1 µM | –
18 | CCOC(=O)c1[nH]c(=O)c2ccccc2c1O | inconclusive: 31.6 µM [inhibitor, partial curve] | –
19 | O=P1(NCc2ccco2)COc2ccccc2OC1 | active: 1 µM | –
20 | Cc1cc(NC(=O)COC(=O)c2c(C)nn(Cc3ccccc3Cl)c2Cl)no1 | – | inactive: -4.67%
21 | c1ccc(SSc2ccccc2)cc1 | inconclusive: 17.8 µM [inhibitor, partial curve] | –
22 | C=CCc1cc(OC)c2c(c1OC)OCO2 | – | inactive: -11%
23 | Cc1nnc2n1-c1ccc(Cl)cc1C(c1ccccc1)=NC2 | active: 15.8 µM | –
24 | CCCCCn1c(=O)c(C(=O)NCc2ccncc2)c(O)c2ccccc21 | inconclusive: 25.1 µM [inhibitor, partial curve] | –
25 | COP(=O)(OC)O/C(=C\Cl)c1cc(Cl)c(Cl)cc1Cl | – | inactive: -8.71%

Row | SMILES | Potency | activity change, negative = inhibition
26 | Cc1cc(OC(=O)CCNC(=O)OC(C)(C)C)c2c3c(c(=O)oc2c1)CCC3 | inconclusive: 3.55 µM [inhibitor, full curve, poor fit] | –
27 | CCOC(=O)c1c(C)n(COCCO)c2ccc(O)cc12 | – | inactive: -20.2%
28 | Cc1cc(Br)ccc1N1C(=O)CC(=O)NC1=O | – | inactive: -4.03%
29 | Cc1ccc2c(c1)N(CCC(=O)N1CCC3(CC1)OCCO3)C(=O)C(C)O2 (centres undefined) | – | inactive: -10.5%
30 | COCCNC(=O)c1c(N)n(CCC(C)C)c2nc3ccccc3nc12 | inconclusive: 31.6 µM [inhibitor, partial curve] | –
31 | CC(C)Oc1cccnc1N(C)C1CCN(Cc2ccccc2)CC1 | inconclusive: 39.8 µM [inhibitor, partial curve] | –
32 | COC[C@H]1OC(=O)c2coc3c2[C@@]1(C)C1=C(C3=O)C2CCC(=O)[C@@]2(C)C[C@H]1OC(C)=O (some centres undefined) | active: 35.5 µM | –
33 | CC[C@H]1CN2CC[C@@H]1C[C@H]2[C@@H](O)c1ccnc2ccc(OC)cc12 | inconclusive: 15.8 µM [inhibitor, partial curve, poor fit] | –
34 | O=C1C[C@@H]2OCC=C3CN4CC[C@]56c7ccccc7N1[C@@H]5[C@@H]2[C@H]3C[C@H]46 (tested in a mixture with another compound) | – | inactive: -7.01%
35 | N#CSCSC#N | active: 6.31 µM | –
36 | Cc1cc(C)nc(-n2c(C)nc3cc(Cl)ccc3c2=O)c1 | – | inactive: -8.46%
37 | O=C(c1ccc2c(c1)ncn2C1CCCCCC1)N1CCC2(CC1)OCCO2 | active: 14.1 µM | –
38 | O=C1NC(=O)C2(Cc3ccccc3N3CCCC32)C(=O)N1Cc1ccccc1 (centres undefined) | – | inactive: -9.16%
39 | O=C(CNC(=O)c1ccccc1Cl)Nc1ccc(Br)cc1C(=O)c1ccccc1 | active: 28.2 µM | –
40 | O=c1[nH]c(=O)n(-c2ccccc2)c(O)c1/C=C1/C(c2ccccc2)=Nc2ccccc21 | active: 25.1 µM | –
41 | CC(=NCCCN1CCOCC1)c1c(O)n(Cc2ccccc2)c(=O)[nH]c1=O | inconclusive: 28.2 µM [inhibitor, partial curve] | –
42 | Cc1ccccc1-c1cncnc1NCCc1cnc[nH]1 | – | inactive: -3.16%
43 | COc1cc2ccc(=O)oc2c2ccoc12 | inconclusive: 22.4 µM [inhibitor, partial curve] and inconclusive: 14.1 µM [inhibitor, partial curve] | –
44 | CC(=O)[C@@]1(O)CC[C@H]2[C@@H]3CC=C4C[C@@H](O)CC[C@]4(C)[C@H]3CC[C@@]21C | – | inactive: 0.722%
45 | O=P1(NC2CCCC2)COc2ccccc2OC1 | active: 0.0708 µM | –
46 | Cc1c([C@@H](C)C2NC[C@H](C)C[C@@H]2O)ccc2c1C[C@@H]1[C@H]2CC=C2C[C@@H](O)CC[C@@]21C (some centres undefined) | – | inactive: -10.9%
47 | Cc1nc2c(c(C)nn2-c2ccccc2)c(C)c1CCC(=O)N1CCC2(CC1)OCCO2 | inconclusive: 28.2 µM [inhibitor, partial curve] | –
48 | COC(=O)C(C)Oc1cc(C)cc2oc(=O)c3c(c12)CCC3 (centres undefined) | inconclusive: 28.2 µM [inhibitor, partial curve] | –
49 | CC[C@@H]1[C@@H]2C[C@H]3[C@H]4N(C)c5ccccc5[C@@]45C[C@@H]([C@@H]2[C@@H]5O)N3[C@H]1O | – | inactive: 2.64%
50 | NCC[C@H](O)C(=O)N[C@H]1C[C@@H](N)[C@@H](O[C@H]2O[C@@H](CN)[C@@H](O)[C@@H](O)[C@@H]2N)[C@@H](O[C@H]2O[C@@H](CO)[C@@H](O)[C@@H]2O)[C@@H]1O | – | inactive: -5.82%

Row | SMILES | Potency | activity change, negative = inhibition
51 | O=C(Nc1ccccc1)N1CC[C@@]2(CCCNC2)C1 | – | inactive: -1.69%
52 | COC(=O)C1(O)CC2OC1(C)n1c3ccccc3c3c4c(c5c6ccccc6n2c5c31)C(=O)NC4 (centres undefined) | – | inactive: -15.6%
53 | Cc1nc2cc(C(F)(F)F)ccc2n1C1CCN(Cc2nnnn2Cc2ccc3c(c2)OCO3)CC1 | – | inactive: -11.5%
54 | CCN1C[C@]2(C)CC[C@H](OC)[C@@]34[C@H]1C1(OCO[C@@]15C[C@H](OC)C1C[C@]3(O)C5[C@H]1OC)[C@@H](O)[C@H]24 | – | inactive: 1.48%
55 | CN1CC=C2C(C#N)=C(N)C(C#N)(C#N)C(c3ccncc3)C2C1 (centres undefined) | inconclusive: 31.6 µM [inhibitor, partial curve] | –
56 | COc1cc(CCN)c(OC)c(OC)c1 | – | inactive: -2.45%
57 | COc1cc2c(cc1OC)[C@@]13CCN4C=C5CCO[C@H]6CC(=O)N2[C@@H]1C6[C@H]5C[C@H]43 (some centres undefined) | – | inactive: -9.28%
58 | C[C@@H](C(=O)O)c1ccc(-c2ccccc2)c(F)c1 | active: 28.2 µM | –
59 | C[C@H]1CCC[C@@H](O)CCC/C=C/c2cc(O)cc(O)c2C(=O)O1 | inconclusive: 17.8 µM [inhibitor, partial curve] | –
60 | CN1CCc2cc3c(cc2[C@@H]1O)OCO3 | inconclusive: 4.47 µM [inhibitor, full curve] | –
61 | O=C(c1cccn2c(=O)c3cc(Cl)ccc3nc12)N1CCC2(CC1)OCCO2 | inconclusive: 28.2 µM [inhibitor, partial curve] | –
62 | Cc1ccc(/C=C2/C(=O)NC(=O)N(CCc3ccc(F)cc3)C2=O)s1 | active: 7.08 µM | –
63 | Cc1ccc(-c2cn3c(=S)[nH]nc3s2)cc1 | active: 28.2 µM | –
64 | CC(C)CON=O | – | inactive: -0.949%
65 | O=C(O)c1cc(O)c(O)c(O)c1 | active: 7.08 µM | inactive: -22.7%
66 | Cc1cc(OC(=O)CCCNC(=O)OC(C)(C)C)c2c3c(c(=O)oc2c1)CCC3 | – | inactive: -12%
67 | O=C(c1csnn1)N1CCC2(CC1)CN(Cc1ccncc1)C2 | – | inactive: -5.91%
68 | CCOP(=O)(OCC)c1nc(-c2ccc(C)cc2)oc1NCc1ccccc1 | inconclusive: 14.1 µM [inhibitor, partial curve] | –
69 | CCCCC/C=C\C/C=C\C/C=C\C/C=C\CCCC(N)=O | – | inactive: -7.8% and inactive: -8.93%
70 | Cc1noc(NS(=O)(=O)c2ccc(NC(=O)CCCOc3ccc(Cl)cc3Cl)cc2)c1C | active: 25.1 µM | –
71 | NC1C[C@H]1c1ccccc1 (some centres undefined) | inconclusive: 39.8 µM [inhibitor, single point] | –
72 | O=CC=O | – | inactive: -7.98%
73 | CCOC(=O)c1c(N)n(Cc2ccco2)c2nc3ccccc3nc12 | inconclusive: 28.2 µM [inhibitor, partial curve] | –
